# Data published in PMC9911399, “Two distinct binding modes provide the RNA-binding protein RbFox with extraordinary sequence specificity”.
# Positions count from the first letter of the chain named. The list shows a part of the results.
# T1: RBFOX1 RRM RbFoxmut (Fox-RRM*) (Homo sapiens, UniProt Q9NWB1 109-208, R118D;E147R;N151S;E152T)
# T1 sequence: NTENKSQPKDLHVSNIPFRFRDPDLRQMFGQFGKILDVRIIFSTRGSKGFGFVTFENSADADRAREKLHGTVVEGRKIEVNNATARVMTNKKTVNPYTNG
# B1: GAGGCGG (DNA:RNA)
# RNA: GGGAGACCGGAAUUCAGAUUGUCCGAGGCGGUUAAAUCCCGUCGUAGCCACCA
# DNA 1: CAATCTGAATTCCGGTCTCCC
# DNA 2: TGGTGGCTACGACGGGATT
# B2: GCGUUAC (DNA:RNA)
# RNA: B1 RNA with A26C, G28U, C29U, G30A, G31C
# DNA 1: CAATCTGAATTCCGGTCTCCC
# DNA 2: TGGTGGCTACGACGGGATT
# B3: UGUUUGA (DNA:RNA)
# RNA: B1 RNA with G25U, A26G, G27U, G28U, C29U, G31A
# DNA 1: CAATCTGAATTCCGGTCTCCC
# DNA 2: TGGTGGCTACGACGGGATT
# B4: CCUACCA (DNA:RNA)
# RNA: B1 RNA with G25C, A26C, G27U, G28A, G30C, G31A
# DNA 1: CAATCTGAATTCCGGTCTCCC
# DNA 2: TGGTGGCTACGACGGGATT
# B5: UGAAAAG (DNA:RNA)
# RNA: B1 RNA with G25U, A26G, G27A, G28A, C29A, G30A
# DNA 1: CAATCTGAATTCCGGTCTCCC
# DNA 2: TGGTGGCTACGACGGGATT
# B6: ACAUGCC (DNA:RNA)
# RNA: GGGAGACCGGAAUUCAGAUUGUCCACAUGCCUUAAAUCCCGUCGUAGCCACCA
# DNA 1: CAATCTGAATTCCGGTCTCCC
# DNA 2: TGGTGGCTACGACGGGATT
# B7: CCGGUCU (DNA:RNA)
# RNA: B6 RNA with A25C, A27G, U28G, G29U, C31U
# DNA 1: CAATCTGAATTCCGGTCTCCC
# DNA 2: TGGTGGCTACGACGGGATT
# B8: AUUAAAA (DNA:RNA)
# RNA: B6 RNA with C26U, A27U, U28A, G29A, C30A, C31A
# DNA 1: CAATCTGAATTCCGGTCTCCC
# DNA 2: TGGTGGCTACGACGGGATT
# B9: AAGCUCC (DNA:RNA)
# RNA: B6 RNA with C26A, A27G, U28C, G29U
# DNA 1: CAATCTGAATTCCGGTCTCCC
# DNA 2: TGGTGGCTACGACGGGATT
# Biological target: T1, RBFOX1 RRM RbFoxmut (Fox-RRM*)
# Experiment: EMSA; HiTS-Eq, 1 nM pool, 10 min; buffer printed only for the single-RNA assays: 10 mM Tris pH 7.5, 150 mM NaCl, 3.4 mM EDTA, 0.001% NP-40, 30 C
# Settings: tags: His6 N-terminal (pET28a); label: 5' 32P
# How it was run: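 A pool of RNA with 7 randomized nucleotides, 5′-radiolabelled and with DNA-annealed flanks, was equilibrated at 1 nM for 10 min in 50 µL with purified RbFox RRM, wild type or mutant, across increasing protein concentrations. Free RNA was separated by 8% native PAGE, excised, reverse-transcribed, barcoded by PCR and sequenced. Relative association constants were obtained from read-count changes of each RNA species versus the control reaction and normalised to the cognate motif.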
row,Binder,binding signal
1,B1,0.083 KA relative to UGCAUGU
2,B2,0.0831 KA relative to UGCAUGU
3,B3,0.319 KA relative to UGCAUGU
4,B4,0.0784 KA relative to UGCAUGU
5,B5,0.0783 KA relative to UGCAUGU
6,B6,0.151 KA relative to UGCAUGU
7,B7,0.0567 KA relative to UGCAUGU
8,B8,0.138 KA relative to UGCAUGU
9,B9,0.0504 KA relative to UGCAUGU
